Experimental findings from the supplement of paper PMC9446081 are described below.

The campaign covered roughly 39,000 compounds. About 220 (0.56%) showed activity. Some of the results follow.
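Note: static incubation at 37 °C against the wild-type strain, values averaged over two biological replicates.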

This assay relates to Escherichia coli K-12 BW25113. Briefly: relative growth (OD600 normalised to plate interquartile mean) (fraction); higher = less growth inhibition, active = 0.2 or less. To be noted: 50 µM; LB; incubation time: overnight (16-24 h).
For the compound `C[C@@H]1CN([C@H](C)CO)C(=O)CCCn2cc(nn2)CO[C@H]1CN(C)C(=O)Nc1ccc(N2CCN(C)CC2)cc1`, the relative growth is inactive: 0.965. In the case of `COCC#Cc1ccc2c(c1)O[C@H](CN(C)S(=O)(=O)c1cccc(OC)c1)[C@H](C)CN([C@H](C)CO)S2(=O)=O` it was inactive: 1.02. Take `O=C(C[C@@H]1C=C[C@H](NC(=O)Cc2ccccn2)[C@@H](CO)O1)NCCc1ccncc1`: the relative growth is inactive: 0.989. Consider `C[C@@H]1CN([C@@H](C)CO)C(=O)Cc2cc(NC(=O)NC3CCCCC3)ccc2O[C@@H]1CN(C)S(=O)(=O)c1cn(C)cn1`, for which the relative growth was inactive: 0.981. For `C[C@H]1CC/C=C\[C@H]2O[C@@]34C=CCN(c5ccc6ccccc6c5)C(=O)[C@H]3N(CCO)C(=O)[C@@H]4[C@@H]2C(=O)O1` the value was inactive: 0.983. As for `COc1ccc(CN(C)C[C@H]2Oc3ccc(NC(=O)Nc4ccc(C(F)(F)F)cc4)cc3CC(=O)N([C@@H](C)CO)C[C@@H]2C)cc1`, the relative growth was inactive: 0.99. Take `COc1ccc(CN(C)C[C@H]2OCCCC[C@H](C)Oc3ccc(NC(=O)c4ccncc4)cc3C(=O)N([C@H](C)CO)C[C@H]2C)cc1`: the relative growth was inactive: 0.998. As for `C[C@H](CO)N1C[C@H](C)[C@@H](CN(C)C(=O)NC2CCCCC2)Oc2ccc(NC(=O)C3CC3)cc2C1=O`, the relative growth is inactive: 0.998.

`C[C@H]1CN([C@@H](C)CO)C(=O)Cc2cc(NC(=O)CCN3CCOCC3)ccc2O[C@@H]1CN(C)C(=O)NC1CCCCC1`: the relative growth was inactive: 0.992. In the case of `CC(C)(C)S(=O)N1Cc2cc(C(=O)N[C@@H]3CCN(Cc4ccccc4)C3)nc(-c3cccc(C#CCC4CCCC4)c3)c2[C@H]1CCO` (stereo partly specified) it was inactive: 1.06.

In the case of `c1coc(CNc2nc[n+]3c4c2ncn4CC3)c1`, the relative growth was inactive: 0.965. For the compound `Cc1ccc(S(=O)(=O)N(C)C[C@H]2Oc3c(NS(=O)(=O)c4cn(C)cn4)cccc3C(=O)N([C@H](C)CO)C[C@H]2C)cc1`, the relative growth was inactive: 0.977. In the case of `C[C@@H]1CN([C@@H](C)CO)C(=O)c2cc(NS(=O)(=O)c3cn(C)cn3)ccc2O[C@@H](C)CCCCO[C@H]1CN(C)S(=O)(=O)c1cccs1` it was inactive: 1.02. For `C[C@@H]1CN([C@H](C)CO)C(=O)c2cccc(NS(=O)(=O)c3ccc(F)cc3)c2O[C@@H]1CN(C)S(=O)(=O)c1cccs1` the value was inactive: 0.997; for `Cc1ccc(S(=O)(=O)Nc2ccc3c(c2)CC(=O)N([C@@H](C)CO)C[C@@H](C)[C@H](CN(C)S(=O)(=O)c2cn(C)cn2)O3)cc1`, inactive: 0.992; for `Cc1ccc(S(=O)(=O)N(C)C[C@H]2Oc3ccc(NC(=O)CCN4CCOCC4)cc3C(=O)N([C@H](C)CO)C[C@@H]2C)cc1`, inactive: 0.905.
